According to PubChem BioAssay AID651661 (Broad Institute, 2012):
Among all 350,000 compounds or so, about 2,300 (0.66%) were called active. Inconclusive means that the source gave no clear call. Such entries were picked first, then a sample of the others.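 How the source made its calls: active means mean inhibition of at least 50% after viability correction, with every replicate also passing that limit; inconclusive means mean reaches 50% but only one of two replicates passes; inactive means the rest.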

experiment: blockers of EWS/Fli transcriptional output – A673 cells, NR0B1 luciferase, luminescence, MLPCN library, primary screen (AID 651661); conditions: A673 NR0B1-luciferase reporter, viability-normalised; at 12.6 µM; active compounds read high;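 further: firefly luciferase signal divided by Alamar Blue viability fluorescence both relative to DMSO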

SMILES	inhibition
CCOC(=O)[C@]12Cc3cc(OC)ccc3[C@H]1N(C1CCCCC1)C(=O)c1cc(OC)ccc12	inactive: 19.2%
COc1cc(/C=C/[N+](=O)[O-])ccc1OC(=O)c1cccnc1	active: 56.2%
C/C(=C\c1ccc(N(C)C)cc1)[N+](=O)[O-]	active: 52%
c1ccc(CNCCc2c[nH]c3ccccc23)cc1	inactive: 16.5%
Cc1ccc(OCCOc2cccc(C=C3C(=O)NC(=O)NC3=O)c2)c(C)c1	inconclusive: 53.5%
CC(N)C(=O)NC1C2C(=C(O)CC(O)C2O)C(=O)OC1(C)C(Cl)Cl (stereo not given)	inconclusive: 50.9%
NC(=O)c1cn(C2OC(CO)C(O)C2O)c2ncnc(N)c12 (stereo not given)	inconclusive: 51.1%
COC(=O)[C@H]1[C@H](CO)[C@H]2Cn3c(ccc(C4=CCCCC4)c3=O)[C@@H]1N2CC1CCCC1	inactive: 4.01%
COc1cccc(-c2nc3ccc(N4CCN(C)CC4)cc3[nH]2)c1	active: 54%
CCc1ccc(N2C(=O)NC(=O)/C(=C\C=C\c3ccco3)C2=O)cc1	active: 70.6%
CC1OC(OC2C=C3CCC4C(CCC5(C)C(c6ccc(=O)oc6)CCC45O)C3(C)CC2)C(O)C(OC2OC(CO)C(O)C(O)C2O)C1O (stereo not given)	inconclusive: 50.3%
CC(C)c1ccc(N2C(=O)NC(=O)/C(=C\C=C\c3ccco3)C2=O)cc1	active: 73.7%
O=C1NC(=O)N(c2ccccc2)C(=O)/C1=C\C=C\c1ccccc1	active: 57.7%
O=c1c2ccccc2nc(/C=C/c2ccc([N+](=O)[O-])o2)n1-c1ccc(O)cc1	active: 83.8%
COC1CCC(OC2CC(C3(C)CCC4(CC(O)C(C)C(C(C)/C=C(\C)C(=O)C(C)CC(C)C(=O)O)O4)O3)OC3(OC(C4OC(O)(CO)C(C)CC4C)CC3C)C2C)OC1C (stereo not given)	active: 64.7%
CC(=O)O[C@@]12CO[C@@H]1C[C@@H](O)[C@@]1(C)C(=O)[C@H](O)C3=C(C)[C@@H](OC(=O)[C@H](O)[C@@H](NC(=O)c4ccccc4)c4ccccc4)C[C@@](O)([C@@H](OC(=O)c4ccccc4)C12)C3(C)C (stereo not given in full)	active: 55.1%
COc1ccc(CN2Cc3cnnn3-c3ccccc3C2C#N)cc1 (stereo not given)	inconclusive: 50.1%
C[C@H]1O[C@@H](OC2CC[C@]3(C=O)[C@H]4CC[C@]5(C)[C@@H](C6=CC(=O)OC6)CC[C@]5(O)[C@@H]4CC[C@]3(O)C2)CC2OC(C)(C)OC21 (stereo not given in full)	active: 71.1%
CCOC(=O)[C@]12Cc3ccc(C)cc3[C@H]1N(C1CCCCC1)C(=O)c1cc(OC)ccc12	inconclusive: 51.4%
COc1cccc(-c2ccc3c(c2)C2c4cnnn4-c4ccccc4C(=O)N2CC3)c1 (stereo not given)	active: 58.9%
